Experimental data from patent US20180155419A1, “ANTI-MIF ANTIBODIES IN THE TREATMENT OF CANCERS CONTAINING MUTANT TP53 AND/OR MUTANT RAS” (Baxalta GmbH, priority 2015, published 2018).
Entries after “also recorded” stand apart in the source; their conditions may differ.

Legend:
[1] = target: T1, redMIF (Homo sapiens, UniProt P14174); test: Differential binding of anti-MIF antibodies to redMIF / unmodified recombinant MIF (Biacore surface plasmon resonance); conditions: for binding of recombinant MIF proteins to coated antibody (Biacore): native HBS-EP buffer without addition of ProClin300; for binding to redMIF: reduced / unmodified MIF
T1 sequence (P14174 1-115): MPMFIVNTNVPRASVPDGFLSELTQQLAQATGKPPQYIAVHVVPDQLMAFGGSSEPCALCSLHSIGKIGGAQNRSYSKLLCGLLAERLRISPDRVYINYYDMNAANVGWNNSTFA
Procedure: (§1) The anti-oxMIF antibodies used in this invention are able to discriminate between ox and red MIF, which are generated by mild oxidation or reduction, respectively. The anti-oxMIF antibodies are useful to specifically detect oxMIF. Discrimination between these conformers is assessed by ELISA or surface plasmon resonance. Both techniques can be performed as well known to a person skilled in the art and as described below.
(§2) The antibodies were coated on a CM5 (=carboxymethylated dextran) chip and recombinant MIF protein, pre-incubated with 0.2% Proclin®300, were injected. (Proclin®300 consists of oxidative isothiazolones that stabilize the oxMIF structure).
(§3) A preferred method for the determination of binding is surface plasmon resonance of an antibody to e.g. rec. […] “Binding” and “specific binding” is used interchangeably here to denote the above.

[2] = target: T2, oxMIF (Homo sapiens, UniProt P14174); test: Differential binding of anti-MIF antibodies to oxMIF (ELISA or Biacore surface plasmon resonance); conditions: for binding to oxMIF: oxMIF (oxidized MIF); for binding to redox-modulated or Proclin300/crosslinker-treated recombinant MIF: recombinant MIF (human, murine, rat, CHO, monkey), Cys/Glu-mediated mild oxidation or Proclin300 or protein crosslinkers
T2 sequence (P14174 1-115): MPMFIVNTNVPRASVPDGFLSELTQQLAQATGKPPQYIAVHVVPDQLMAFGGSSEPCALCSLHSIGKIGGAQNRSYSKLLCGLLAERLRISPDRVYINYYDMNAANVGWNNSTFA
Procedure: as §1, §2, §3

[3] = system: AKT; test: Phosphorylation of AKT in starved PC3 cells (western blot); type: cell-based, human; conditions: starved PC3 cells (K-ras G12V, TP53 deletion), 10% FCS, 10 nM recombinant MIF, 100 nM antibody; versus untreated or control antibody
Procedure: (§4) FIG. 1: Anti-oxMIF inhibits phosphorylation of ERK and AKT in vitro. […] Cell lysates were separated by SDS-PAGE and blotted on nitrocellulose membranes, and the phosphorylated forms of ERK1/2 (FIG. 1A) or AKT (FIG. 1B) were visualized with phosphor-specific antisera. The total levels of the enzymes were determined by using antisera that recognized all forms of the enzymes and were visualized as a loading control.
(§5) Cell lysates were separated by SDS-PAGE and blotted on nitrocellulose membranes, and the phosphorylated forms of ERK1/2 (FIG. 1A) or AKT (FIG. 1B) were visualized with phosphor-specific antisera. The total levels of the enzymes were determined by using antisera that recognized all forms of the enzymes and were visualized as a loading control. […] Mutant K-ras protein activates ERK1/2 and AKT through a cascade that leads to ERK1/2 and AKT phosphorylation.

[4] = system: ERK1/2; test: Phosphorylation of ERK1/2 in starved PC3 cells (western blot); type: cell-based, human; conditions: starved PC3 cells (K-ras G12V, TP53 deletion), 10% FCS, 10 nM recombinant MIF, 100 nM antibody; versus untreated or control antibody
Procedure: as §4, §5

B1: RAB9: anti-MIF (oxMIF) antibody, light chain SEQ ID NO: 1, heavy chain (IgG4) SEQ ID NO: 5; plasmids DSM 25111 and DSM 25113 (antibody)
heavy: EVQLLESGGGLVQPGGSLRLSCAASGFTFSIYSMNWVRQAPGKGLEWVSSIGSSGGTTYYADSVKGRFTISRDNSKNTLYLQMNSLRAEDTAVYYCAGSQWLYGMDVWGQGTTVTVSSASTKGPSVFPLAPCSRSTSESTAALGCLVKDYFPEPVTVSWNSGALTSGVHTFPAVLQSSGLYSLSSVVTVPSSSLGTKTYTCNVDHKPSNTKVDKRV[not shown - human IgG4 Fc with S228P (EU numbers)]
light: DIQMTQSPSSLSASVGDRVTITCRSSQRIMTYLNWYQQKPGKAPKLLIFVASHSQSGVPSRFRGSGSETDFTLTISGLQPEDSATYYCQQSFWTPLTFGGGTKVEIKRTVAAPSVFIFPPSDEQLKSGTASVVCLLNNFYPREAKVQWKVDNALQSGNSQESVTEQDSKDSTYSLSSTLTLSKADYEKHKVYACEVTHQGLSSPVTKSFNRGEC
modifications: Heavy chain of RAB9; Light chain of RAB9
binding of recombinant MIF proteins to coated antibody (Biacore) [1]: none of the recombinant MIF proteins bound
binding to redMIF [1]: do not bind to unmodified MIF in its reduced state; also recorded: incapable of binding to redMIF
binding to oxMIF [2]: specifically bind to oxMIF
binding to redox-modulated or Proclin300/crosslinker-treated recombinant MIF [2]: leads to the binding

B2: RAB4: anti-MIF (oxMIF) antibody, light chain SEQ ID NO: 2, heavy chain (IgG4) SEQ ID NO: 6; plasmids DSM 25110 and DSM 25112 (antibody)
heavy: EVQLLESGGGLVQPGGSLRLSCAASGFTFSIYAMDWVRQAPGKGLEWVSGIVPSGGFTKYADSVKGRFTISRDNSKNTLYLQMNSLRAEDTAVYYCARVNVIAVAGTGYYYYGMDVWGQGTTVTVSSASTKGPSVFPLAPCSRSTSESTAALGCLVKDYFPEPVTVSWNSGALTSGVHTFPAVLQSSGLYSLSSVVTVPSSSLGTKTYTCNVDHKPSNTKVDKRV[not shown - human IgG4 Fc with S228P (EU numbers)]
light: DIQMTQSPGTLSLSPGERATLSCRASQGVSSSSLAWYQQKPGQAPRLLIYGTSSRATGIPDRFSGSASGTDFTLTISRLQPEDFAVYYCQQYGRSLTFGGGTKVEIKRTVAAPSVFIFPPSDEQLKSGTASVVCLLNNFYPREAKVQWKVDNALQSGNSQESVTEQDSKDSTYSLSSTLTLSKADYEKHKVYACEVTHQGLSSPVTKSFNRGEC
modifications: Heavy chain of RAB4; Light chain of RAB4
binding to redMIF [1]: do not bind to unmodified MIF in its reduced state; also recorded: incapable of binding to redMIF
binding to oxMIF [2]: specifically bind to oxMIF
binding to redox-modulated or Proclin300/crosslinker-treated recombinant MIF [2]: leads to the binding

B3: RAB0: anti-MIF (oxMIF) antibody, light chain SEQ ID NO: 3, heavy chain (IgG4) SEQ ID NO: 7; plasmids DSM 25114 and DSM 25115 (antibody)
heavy: EVQLLESGGGLVQPGGSLRLSCAASGFTFSWYAMDWVRQAPGKGLEWVSGIYPSGGRTKYADSVKGRFTISRDNSKNTLYLQMNSLRAEDTAVYYCARVNVIAVAGTGYYYYGMDVWGQGTTVTVSSASTKGPSVFPLAPCSRSTSESTAALGCLVKDYFPEPVTVSWNSGALTSGVHTFPAVLQSSGLYSLSSVVTVPSSSLGTKTYTCNVDHKPSNTKVDKRV[not shown - human IgG4 Fc with S228P (EU numbers)]
light: DIQMTQSPGTLSLSPGERATLSCRASQGVSSSSLAWYQQKPGQAPRLLIYGTSSRATGIPDRFSGSASGTDFTLTISRLQPEDFAVYYCQQYGRSLTFGGGTKVEIKRTVAAPSVFIFPPSDEQLKSGTASVVCLLNNFYPREAKVQWKVDNALQSGNSQESVTEQDSKDSTYSLSSTLTLSKADYEKHKVYACEVTHQGLSSPVTKSFNRGEC
modifications: Heavy chain of RAB0; Light chain of RAB0
binding of recombinant MIF proteins to coated antibody (Biacore) [1]: none of the recombinant MIF proteins bound
binding to redMIF [1]: do not bind to unmodified MIF in its reduced state; also recorded: incapable of binding to redMIF
binding to oxMIF [2]: specifically bind to oxMIF
binding to redox-modulated or Proclin300/crosslinker-treated recombinant MIF [2]: leads to the binding

B4: RAM4: anti-MIF (oxMIF) antibody, heavy chain SEQ ID NO: 13, light chain SEQ ID NO: 14; DSM 25862 and DSM 25861 (antibody)
heavy: EVQLLESGGGLVQPGGSLRLSCAASGFTFSIYAMDWVRQAPGKGLEWVSGIVPSGGFTKYADSVKGRFTISRDNSKNTLYLQMNSLRAEDTAVYYCARVNVIAVAGTGYYYYGMDVWGQGTTVTVSSASTKGPSVFPLAPSSKSTSGGTAALGCLVKDYFPEPVTVSWNSGALTSGVHTFPAVLQSSGLYSLSSVVTVPSSSLGTQTYICNVNHKPSNTKVDKRV[not shown - human IgG1 Fc]
light: DIQMTQSPGTLSLSPGERATLSCRASQGVSSSSLAWYQQKPGQAPRLLIYGTSSRATGIPDRFSGSASGTDFTLTISRLQPEDFAVYYCQQYGRSLTFGGGTKVEIKRTVAAPSVFIFPPSDEQLKSGTASVVCLLNNFYPREAKVQWKVDNALQSGNSQESVTEQDSKDSTYSLSSTLTLSKADYEKHKVYACEVTHQGLSSPVTKSFNRGEC
modifications: RAM4hc; RAM4lc
binding to redMIF [1]: incapable of binding to redMIF
phosphorylation of AKT [3]: reduced the phosphorylation
binding to oxMIF [2]: specifically bind to oxMIF
phosphorylation of ERK1/2 [4]: reduced the phosphorylation
